Switch fluorescence ratio data for 120 sequences are collected here from the supplement of paper PMC10126150.

For the data set, the system named is ATP. In words: switch fluorescence ratio, 500 uM ATP over buffer (Cy3 cluster intensity, sum of 5 cycles each) (fold (ratio)); higher = stronger signal-on switching upon ATP binding; sequences stand for … in TCGTCGGCAGCGTCAGATGTGTATAAGAGACAGTTTTTTTTTTTTTTTTTTTTTTTTT…TC. Conditions: aptamer strand: ATP DNA aptamer (quencher-CACCTGGGGGAGTATTGCGGAGGAAGG + anchor), 100 nM annealed; ATP concentration: 500 uM; one replicate. An outline of the steps: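 Cy3-labelled switching-strand clusters on a modified Illumina MiSeq flow-cell were annealed to 100 nM quencher-labelled ATP aptamer, imaged in selection buffer, then imaged after 15 min with 500 uM ATP at 22 °C. Five buffer/ATP cycles ran, with NaOH stripping and re-annealing between them. The fluorescence ratio is summed target-cycle over summed buffer-cycle Cy3 intensity per cluster, averaged per switch-domain sequence. Clusters outside 100-1000 RFU were excluded.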

Values marked as one replicate rest on one cluster of the flow cell; about a third of the high ones do not repeat.
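Further: ATP exposure 15 min at 22 °C before imaging.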

As for TATGGCACG, the switch fluorescence ratio was determined as 1.13.

As to GTAGATGGGG, the switch fluorescence ratio came out at 1.01.

Regarding GCTTTCTTTT, the switch fluorescence ratio was 1.01.

GATGGACGCC: the switch fluorescence ratio came out at 1.04.

Regarding TCACTTTCCT, the switch fluorescence ratio was found to be 1.17.

Consider ATAGGTCTAA, for which the switch fluorescence ratio was determined as 1.

Regarding GAGATTTCTT, the switch fluorescence ratio was 1.02.

Consider TCCCCAAGTA, for which the switch fluorescence ratio amounted to 1.07.

AGGGGACTT: the switch fluorescence ratio was 1.03.

Consider CGGAGATTAT, for which the switch fluorescence ratio worked out at 0.975.

Take TGATCTGTTG: the switch fluorescence ratio was 0.964.

For TAGAGAAATG, the switch fluorescence ratio came to 0.959.

With GACCGGGCCA, the switch fluorescence ratio is 0.975.

TACATGGGAG: the switch fluorescence ratio was 0.974.

On to GAGCTATATA, for which the switch fluorescence ratio came out at 1.06.

On to TAGGCTTCGC, for which the switch fluorescence ratio worked out at 0.949.

On to TGTAGCCAGA, for which the switch fluorescence ratio was 0.982.

In the case of GAATGATTAT, the switch fluorescence ratio stood at 0.994.

Take GGCGGCGCAC: the switch fluorescence ratio is 1.01.

Turning to AGTCGCTGTT, the switch fluorescence ratio turned out to be 1.02.

On to ATTCCAGAAT, for which the switch fluorescence ratio is 0.977.

With CAACTAGATA, the switch fluorescence ratio worked out at 0.987.

Consider ATGGGCCAAT, for which the switch fluorescence ratio is 1.05.

For the sequence GGTGTAGCTG, the switch fluorescence ratio is 0.981.

CCCAGCAACG: the switch fluorescence ratio amounted to 1.56.

For the sequence CGGTACATA, the switch fluorescence ratio was 1.01.

Turning to TGGTGCAAGC, the switch fluorescence ratio is 1.05.

Take CCCCCTGTGT: the switch fluorescence ratio was 2.83.

For GTTGGGAGCT, the switch fluorescence ratio was determined as 0.997.

In the case of CGCGGACTAG, the switch fluorescence ratio was 0.981.

As to AGATGATAAA, the switch fluorescence ratio came out at 1.02.

Take AATCGCACTC: the switch fluorescence ratio amounted to 1.56.

As for ATTGGGTTT, the switch fluorescence ratio is 0.987.

Take ATGGCAGTGG: the switch fluorescence ratio stood at 1.03.

For TTATAACGT, the switch fluorescence ratio is 0.997.

In the case of GCGAGGGCTC, the switch fluorescence ratio was found to be 1.

In the case of CCGTGATATT, the switch fluorescence ratio came out at 2.54.

As for TCGCTTGAAC, the switch fluorescence ratio came out at 2.12.

Turning to ACTCCCATCG, the switch fluorescence ratio came out at 1.72.

With TTGGTGTTAT, the switch fluorescence ratio was determined as 0.993.

In the case of CCGTTCATCA, the switch fluorescence ratio turned out to be 1.01.

With AGACAGCTGC, the switch fluorescence ratio was found to be 1.18.

As for TGGTCGGAGG, the switch fluorescence ratio is 0.99.

For GATTACTGGG, the switch fluorescence ratio worked out at 1.01.

Turning to TTCTTGATGC, the switch fluorescence ratio is 1.23.

With GTAGAAAGGT, the switch fluorescence ratio turned out to be 0.971.

Consider TCAATGACTC, for which the switch fluorescence ratio was 1.03.

In the case of TCACAAGGGG, the switch fluorescence ratio turned out to be 2.03.

Turning to GGGGCTGTCG, the switch fluorescence ratio came out at 1.02.

GGGTAACACT: the switch fluorescence ratio worked out at 1.01.

AGGAGTCTG: the switch fluorescence ratio stood at 1.05.

For TTCTGGCCTT, the switch fluorescence ratio was found to be 1.07.

Turning to CAATAGTTC, the switch fluorescence ratio was determined as 1.01.

For AGTGAGTGAG, the switch fluorescence ratio worked out at 1.03.

Turning to TTGTACTTAA, the switch fluorescence ratio came out at 1.11.

Take AGCAAGTTCC: the switch fluorescence ratio was 1.62.

As for CTGTTAGATT, the switch fluorescence ratio was determined as 1.

Consider GGGTCAAACC, for which the switch fluorescence ratio is 1.05.

Regarding AGCGGGGAGC, the switch fluorescence ratio came to 1.04.

Take CGGTTTCGCT: the switch fluorescence ratio came to 1.

Regarding GTTGGTTCGA, the switch fluorescence ratio worked out at 0.969.

Regarding CATCCGTAAA, the switch fluorescence ratio amounted to 2.52.

As to TCCGATGACA, the switch fluorescence ratio was 1.14.

With TCGCTTAGTC, the switch fluorescence ratio amounted to 1.14.

Turning to GACATAGCAT, the switch fluorescence ratio stood at 2.24.

Consider TTATGCTTGA, for which the switch fluorescence ratio is 1.01.

With CCTCGTTAGG, the switch fluorescence ratio is 1.02.

Turning to GTGAGAGATT, the switch fluorescence ratio turned out to be 0.969.

Turning to CTAGCTCCT, the switch fluorescence ratio came out at 0.994.

On to GTCCAAAGTC, for which the switch fluorescence ratio was 0.971.

Consider AGGGAGGCCC, for which the switch fluorescence ratio is 1.04.

Take CTATCAGCGC: the switch fluorescence ratio is 0.983.

Regarding GATCGAGGTA, the switch fluorescence ratio is 0.942.

In the case of ATTTTTTTCA, the switch fluorescence ratio worked out at 0.918.

As to CATGTTGCAT, the switch fluorescence ratio came out at 1.02.

As for CGCTTCTAGT, the switch fluorescence ratio was 0.98.

TGTTGCGACA: the switch fluorescence ratio came to 1.

Turning to GACCTACCCT, the switch fluorescence ratio was found to be 1.34.

As for TCCAATCACA, the switch fluorescence ratio turned out to be 1.04.

For AATGCACCG, the switch fluorescence ratio was 1.08.

Turning to ATCATATGA, the switch fluorescence ratio came to 1.01.

In the case of TAACAAAGGA, the switch fluorescence ratio is 1.01.

On to AACAACTATA, for which the switch fluorescence ratio came to 1.06.

As for TTCTATGCCG, the switch fluorescence ratio stood at 1.08.

Regarding GGCCACAAGC, the switch fluorescence ratio worked out at 1.03.

With CCTTGGGCA, the switch fluorescence ratio amounted to 1.03.

With ATATCACGTT, the switch fluorescence ratio turned out to be 1.03.

For the sequence CCCCGTTTGT, the switch fluorescence ratio worked out at 1.26.

Regarding TTGGTTAT, the switch fluorescence ratio amounted to 0.979.

For CGCGATTTCC, the switch fluorescence ratio is 2.13.

Take AGGGACTGA: the switch fluorescence ratio is 1.05.

For the sequence ACTCAATGCC, the switch fluorescence ratio was 1.08.

For CGCAGTTGCA, the switch fluorescence ratio came to 0.973.

In the case of GTAGGGTTGG, the switch fluorescence ratio is 0.969.

As for TAGATGATGA, the switch fluorescence ratio was determined as 0.989.

As to GATGAGGGG, the switch fluorescence ratio is 0.965.

Consider ACCAGCATGC, for which the switch fluorescence ratio was found to be 1.1.

Take ACGAGATGAA: the switch fluorescence ratio amounted to 0.986.

For the sequence TCTTTTTAAT, the switch fluorescence ratio was 1.1.

As to GTTAGTAGGC, the switch fluorescence ratio is 0.942.

With TCTTTAGTA, the switch fluorescence ratio was determined as 0.99.

Regarding TTGTTTCCTC, the switch fluorescence ratio is 1.05.

Turning to ACACTCTGAT, the switch fluorescence ratio came to 0.975.

With CAGTCGTAGC, the switch fluorescence ratio was determined as 0.986.

On to CAATCTTA, for which the switch fluorescence ratio worked out at 1.01.

For the sequence TTATTTTAAT, the switch fluorescence ratio came to 0.965.

For the sequence GCTGCGCCGC, the switch fluorescence ratio is 1.04.

Regarding GACATCAACG, the switch fluorescence ratio amounted to 1.14.

Consider AAAATCCAAT, for which the switch fluorescence ratio amounted to 1.05.

Regarding AGCGCTCGGC, the switch fluorescence ratio came out at 0.996.

Regarding GTTTCAGATG, the switch fluorescence ratio came to 1.01.

In the case of TAGTTGATCA, the switch fluorescence ratio turned out to be 1.01.

For CTCAGTGGTC, the switch fluorescence ratio turned out to be 1.08.

GGGTCAAGTT: the switch fluorescence ratio turned out to be 0.984.

Consider AAGCGCAACG, for which the switch fluorescence ratio is 1.05.

Take CGCCCGGCCA: the switch fluorescence ratio worked out at 1.01.

In the case of CTGGGTGCTC, the switch fluorescence ratio was found to be 1.08.

On to ACCTTAAAAA, for which the switch fluorescence ratio was 1.07.

Consider AACCTTGGGT, for which the switch fluorescence ratio amounted to 1.02.

Turning to GTGGGATTG, the switch fluorescence ratio turned out to be 1.03.
